According to PubChem BioAssay AID1347428 (National Center for Advancing Translational Sciences (NCATS), 2020):
Screen size: about 91,000 compounds; about 290 (0.32%) were called active. The inconclusive results got no clear call from the source; some entries with a clear call stand among them for comparison. The call rests on the fitted dose curve; in most records, active means well fitted inhibition curve with a large enough effect; inconclusive means small, poorly fitted or top-dose-only effect; inactive means no such curve, though single readings can be large or run the other way. Where the call is inconclusive, the potency comes from a doubtful curve fit.

Each compound was assayed against Single-stranded DNA cytosine deaminase (Homo sapiens) (UniProt Q9GZX7) (assay: Primary qHTS assay for inhibitors of Activation Induced Cytidine Deaminase (AID): AID signal). Details: AID deamination FRET fluorescence, UDG-coupled, 4 h; activity change, negative = inhibition: at 115 µM (top of the series).
Sequence of UniProt Q9GZX7 (Q9GZX7 whole entry, looked up): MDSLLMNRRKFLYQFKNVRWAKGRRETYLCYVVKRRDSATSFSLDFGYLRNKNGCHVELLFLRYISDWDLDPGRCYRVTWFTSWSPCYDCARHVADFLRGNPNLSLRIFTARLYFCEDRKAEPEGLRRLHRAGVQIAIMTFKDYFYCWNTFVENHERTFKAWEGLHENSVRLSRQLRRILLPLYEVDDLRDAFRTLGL
Further: nearly all actives have a fitted effect of over 25% in size.
On the % scale 0 is the no-effect control and ±100 the full control effect; potency means the concentration at half of the fitted maximal effect; tags describe the fitted curve by direction and shape.

SMILES	activity change, negative = inhibition	Potency
CCc1ccc(OCC(=O)Nc2ccc(Cl)c(-c3nc4ncccc4o3)c2)cc1	inactive: -7.3%	–
N#Cc1ccc(C(=O)/C=C/c2ccc3c(c2)OCCO3)cc1	inactive: -11.9%	–
O=C(CSCC(=O)N(Cc1cccs1)C1CC1)c1ccccc1	–	inconclusive: 89.1 µM [inhibitor, partial curve, poor fit]
COc1ccc(NC(=O)CSc2nc3cc(C)[nH]c3c(=O)n2C)cc1Cl	–	inconclusive: 22.4 µM [inhibitor, partial curve, poor fit]
COc1ccc(-c2nn(C)c3sc(C(=O)N4CCN(c5cccc(Cl)c5)CC4)cc23)cc1OC	–	active: 79.4 µM
CN(CC(=O)NC(N)=O)C1CCCCCC1	inactive: -2.94%	–
Cc1cccc(-n2c(-c3ccco3)nc3c(cnn3-c3ccc(F)cc3)c2=O)c1	–	inconclusive: 56.2 µM [inhibitor, partial curve, poor fit]
CCc1ccc(NC(=O)CCCc2nnc3n(C(C)CC)c(=O)c4sccc4n23)cc1 (stereo not drawn)	–	inconclusive: 79.4 µM [inhibitor, single point]
CCCCN(CC)CCNC(=O)c1nn(C)c2c1CS(=O)(=O)c1ccccc1-2	inactive: -0.993%	–
Cc1cccc(/C=C/c2ccc3ccccc3n2)c1	inactive: -13.2%	–
Cc1ccc(CNC(=O)c2sccc2C)cn1	inactive: 1.53%	–
CC(=O)N1CCc2c(sc3c2c(=O)n(Cc2ccccc2)c(=O)n3Cc2ccccc2Cl)C1	–	active: 22.4 µM
CCC(C)(CC)C(O)(C#CC[N+]1(Cc2ccccc2)CCCCC1)c1ccccc1 (stereo not drawn)	–	inconclusive: 44.7 µM [inhibitor, partial curve, poor fit]
Cc1ccc(Cl)cc1N1CCN(C(=O)COc2cc(=O)n(C)c3ccccc23)CC1	–	inconclusive: 50.1 µM [inhibitor, partial curve, poor fit]
CCCn1nc(C(=O)Nc2nc(-c3cc(OC)ccc3OC)cs2)c2ccccc2c1=O	inactive: 3.91%	–
Cc1ccc(-c2nnc(Nc3ccc(O)cc3)c3ccccc23)cc1S(=O)(=O)NC(C)(C)CO	–	inconclusive: 70.8 µM [inhibitor, partial curve, poor fit]
O=C1N(Cc2ccc(Cl)cc2)CCCN1c1cccc(C(=O)N2CCc3ccccc32)c1	–	inconclusive: 56.2 µM [inhibitor, partial curve, poor fit]
CCOc1ccccc1NC(=O)CN(c1cc(C)cc(C)c1)S(=O)(=O)c1c(C)nn(C)c1C	–	inconclusive: 44.7 µM [inhibitor, partial curve, poor fit]
COc1ccc(Nc2cc(C)c3cc(NC(=O)COc4cccc(C)c4)ccc3n2)cc1	–	inconclusive: 15.8 µM [inhibitor, full curve, poor fit]
Cc1ccc(CNC(=O)c2cc(NS(=O)(=O)c3ccc(C)cc3)ccn2)cc1	–	inconclusive: 79.4 µM [inhibitor, partial curve, poor fit]
C=C(C)CC1Cc2c(Br)cccc2C(CC(=C)C)N1 (stereo not drawn)	inactive: 1.67%	–
O=C(NCC(c1cccnc1)N1CCc2ccccc21)c1cccc(F)c1 (stereo not drawn)	–	inconclusive: 20 µM [inhibitor, full curve]
N#Cc1ccc(/C=C2\CSc3ccccc3C2=O)cc1	–	inconclusive: 31.6 µM [inhibitor, single point]

SMILES	activity change, negative = inhibition	Potency
CCN(CC)C(=O)c1sc2c(c1C)c(=O)n(Cc1ccccc1)c(=O)n2Cc1c(C)cc(C)cc1C	–	inconclusive: 28.2 µM [inhibitor, partial curve, poor fit]
COc1ccc(Cl)cc1NC(=O)COc1cccc2c(=O)n(C)ccc12	inactive: -24.2%	–
Cc1sc2ncn(CC(=O)N3CCN(c4cccc(Cl)c4)CC3)c(=O)c2c1S(=O)(=O)N1CCC(C)CC1	–	inconclusive: 22.4 µM [inhibitor, single point]
CCCSc1nc2c(c(=O)n(C)c(=O)n2C)n1CCCc1ccccc1	–	inconclusive: 56.2 µM [inhibitor, partial curve, poor fit]
Cc1cccc(-c2nc3c4ccccc4n(CC(=O)Nc4cccc(F)c4)c(=O)n3n2)c1	inactive: -9.85%	–
O=C(/C=C/c1ccc(O)cc1)c1ccc(-c2cccs2)cc1	inactive: 7.2%	–
CC1CCCCN1C(C)CNC(=S)Nc1ccc(Cl)cc1Cl (stereo not drawn)	inactive: -0.374%	–
O=C(O)CC(C(=O)O)c1ccc(OCCCOc2ccc(C(CC(=O)O)C(=O)O)cc2)cc1 (stereo not drawn)	inactive: 5.67%	–
O=C(Cn1c2ncccc2c(=O)n1-c1ccccc1)Nc1cccc(C(F)(F)F)c1	–	inconclusive: 50.1 µM [inhibitor, partial curve, poor fit]
C(=C\c1ccccc1)/CNCC1CCNCC1	inactive: 5.49%	–
COc1cccc(-c2nc(S(=O)(=O)c3ccc(C)cc3)c(NCc3ccccc3)o2)c1	–	inconclusive: 35.5 µM [inhibitor, full curve, poor fit]
O=C(N/N=C/C=C/c1ccccc1[N+](=O)[O-])c1ccccc1NS(=O)(=O)c1cccs1	inactive: -6.66%	–
CS(=O)(=O)Oc1ccc2c(=O)c(-c3ccccc3)coc2c1	–	inconclusive: 35.5 µM [inhibitor, single point]
Cc1ccc(Cn2c3ccccc3c3cnn(CC(=O)N4CCCCCC4)c(=O)c32)cc1	–	inconclusive: 35.5 µM [inhibitor, partial curve, poor fit]
CC(=O)Nc1c(C)nn(-c2ccccc2)c1N1CCC(C(=O)Nc2ccc(Cl)cc2C)CC1	–	inconclusive: 28.2 µM [inhibitor, full curve, poor fit]
COc1ccc(OC)c(NC(=O)CSc2nccn2-c2cc(C)cc(C)c2)c1	–	inconclusive: 39.8 µM [inhibitor, full curve, poor fit]
CCCCn1cnc2c1c(=O)n(CC(=O)NC1CCC(C)CC1)c(=O)n2CCC (stereo not drawn)	inactive: 7.62%	–
C/C=C/C[N+](C)(C/C=C/C)CC(=O)C(C)(C)C	inactive: 2.89%	–
CCOc1cc(CNCC(C)O)ccc1OCc1ccc(C)cc1 (stereo not drawn)	inactive: -3.25%	–
Cc1c(C(=O)Nc2nonc2-c2cccs2)oc2ccccc12	inactive: 5.74%	–
Cc1ccccc1C(=O)Nc1cccc(C(=O)OCc2cc(=O)n3c(C)csc3n2)c1	–	inconclusive: 15.8 µM [inhibitor, full curve, poor fit]
CCn1c(=O)n(-c2ccc3c(c2)OCO3)c2nc(-c3cc(OC)ccc3OC)nc(C(N)=O)c21	inactive: 27.1%	–
CCN(CC)CCCNC(=O)c1cn(CC)c2ccc(S(=O)(=O)N3CCc4ccccc4C3)cc2c1=O	–	inconclusive: 56.2 µM [inhibitor, single point]

SMILES	activity change, negative = inhibition	Potency
Cc1ccc(C(=O)Nc2cccc(O)c2)cc1S(=O)(=O)N1CCCCCC1	inactive: 0.877%	–
CC(C)N(Cc1cnn(C)c1)S(=O)(=O)c1ccc(Cl)cc1	inactive: -1.09%	–
Cc1nc(-c2ccc(Cl)cc2)sc1CCNC(=O)Cc1ccc(F)cc1	–	inconclusive: 89.1 µM [inhibitor, single point]
Cc1ccc(C)c(N2CCN(C(=O)C3CCCN(S(=O)(=O)c4cccc5nsnc45)C3)CC2)c1 (stereo not drawn)	–	inconclusive: 31.6 µM [inhibitor, partial curve, poor fit]
Cc1ccc(-n2cc(-c3ccccc3)nc2S(=O)(=O)CC(=O)Nc2ccc(F)cc2)cc1	–	inconclusive: 25.1 µM [inhibitor, full curve]
COc1ccc(OC)c(C(=O)COC(=O)CCC(=O)c2ccc(Cl)cc2)c1	inactive: 12.2%	–
CCN(Cc1ccccc1)C(=O)Cn1cc(S(=O)(=O)Cc2cccc(Cl)c2)c2ccccc21	–	inconclusive: 50.1 µM [inhibitor, partial curve, poor fit]
Cc1ccc(O)c(NC(=O)c2ccc(Br)c(S(=O)(=O)N3CCCCC3)c2)c1	inactive: -22.7%	–
O=C(NCCc1ccccc1)c1ccc(Cn2c(SCc3cccc(F)c3)nc3cccnc32)cc1	–	inconclusive: 10 µM [inhibitor, full curve, poor fit]
O=C(/C=C/c1ccc(-c2cc(Cl)ccc2Cl)o1)c1ccc(Cl)cc1	inactive: -4.87%	–
Cc1nn(CC(=O)Nc2ccccc2C(F)(F)F)c(=O)c2cccn12	–	inconclusive: 79.4 µM [inhibitor, single point]
CCCn1c2ccccc2c2cnn(CC(=O)N(C)c3ccccc3CC)c(=O)c21	–	inconclusive: 39.8 µM [inhibitor, partial curve, poor fit]
Cc1nc2nc(SCC(=O)c3ccccc3)[nH]c2cc1Br	inactive: -8.97%	–
O=C(CCC1N=C2c3ccccc3N=C(SCc3ccc(Cl)cc3)N2C1=O)NCCc1ccccc1 (stereo not drawn)	–	inconclusive: 100 µM [inhibitor, single point]
C/C(=N/NC(=O)c1ccc(C)cc1)C(C)(C)C	inactive: 2.47%	–
CCCCc1nn2c(=O)cc(COC(=O)c3cccc(NC(=O)CCc4ccccc4)c3)nc2s1	–	inconclusive: 56.2 µM [inhibitor, partial curve, poor fit]
O=C(Nc1ccc(OC(F)(F)F)cc1)c1nc2ccccc2nc1N1CCCCC1	–	inconclusive: 100 µM [inhibitor, single point]
CCc1cccc(-n2c(C)nc3c(cnn3-c3ccc(C)c(C)c3)c2=O)c1	–	inconclusive: 50.1 µM [inhibitor, partial curve, poor fit]
CCOc1ccccc1CNC(=O)c1cc2n(n1)CCCN(Cc1ccc(C)cc1)C2=O	–	inconclusive: 56.2 µM [inhibitor, partial curve, poor fit]
CC(C)NC(=O)Cn1c(=O)n(-c2ccccc2)c(=O)c2sccc21	inactive: -3.56%	–
CCOc1ccc(-c2cc(OC(=O)c3ccc(OC)cc3)c3c(C)oc(C)c3c(=O)c2)cc1	–	inconclusive: 35.5 µM [inhibitor, partial curve, poor fit]
COc1cccc(C(=O)/C=C/c2ccc(Br)cc2)c1	inactive: -17.2%	–
